Molecules are shown by their SMILES. Screen size: about 52,000 compounds; about 1,700 (3.3%) were called active. No stated cut-off is given here; in the data, active means survival mostly below about 52% (no sharp cut-off); inactive means mostly above about 56%. The list shows a part of the results.

This experiment deals with Wild type. Put plainly: growth inhibition of S. aureus wild type versus tarO mutant, primary screen, teichoic acid synthesis inhibitors, RN4220, OD600 (AID 463173). Particulars: S. aureus RN4220 wild type/DeltatarO growth, OD600, 18 h, active compounds read low, screened at 18.75 µg/mL (by protocol).
In the case of `COc1ccc(CNC(=O)c2ccc(NC(=O)N3CCSc4ncccc43)cc2)cc1`, the survival was inactive: 82%. Consider `O=C(c1cc2sccc2n1Cc1ccccc1)N(Cc1ccco1)Cc1cccs1`, for which the survival is inactive: 123%. The same measure for `CCCNC(=O)CN1CCN(c2ccc(NC(=O)c3ccc(OC)cc3)cc2C(=O)O)CC1`: inactive: 87%; for `N#CCN(CC#N)S(=O)(=O)c1ccccc1`: inactive: 99%; for `Cc1ccccc1C(=O)N1CCC(C(=O)Nc2ccc(F)cc2F)CC1`: inactive: 75%. The same measure for `CC(C)NC(=O)c1ccccc1NC(=O)c1ccco1`: inactive: 106%; for `Cc1nc(N2CCOCC2)c2c(C(=O)N3CCN(c4ccccc4)CC3)c(C)oc2n1`: inactive: 32%. The same measure for `Cc1ccc(S(=O)(=O)c2nc(-c3ccccc3F)oc2NCc2ccccc2)cc1`: inactive: 84%; for `CC(=O)OC(C(=O)NCc1ccc(F)cc1)c1ccccn1` (stereo not drawn): inactive: 105%; for `Cc1cc2c(cc3c(SCC(=O)Nc4ccc(Cl)cc4F)nncn32)o1`: inactive: 47%. Regarding `CCOC(=O)c1cccc(NC(=O)NC(C)c2c(-n3cccc3)sc3c2CCN(C)C3)c1` (stereo not drawn), the survival was inactive: 131%. The figure for `O=C(COc1ccccc1F)Nc1ccc(OCc2cc(=O)n3ccccc3n2)cc1` is inactive: 133%; for `COc1ccc(CC(=O)N2CCc3cc(OC)c(OC)cc3C2COc2ccc3c(C)cc(=O)oc3c2)cc1OC` (stereo not drawn) it is inactive: 74%; for `COCCCN1C(=O)c2oc3ccccc3c(=O)c2C12C(=O)N(C)c1ccccc12` (stereo not drawn) it is inactive: 91%.

On to `CCOc1ccc(NC(=O)CCc2c(C)nc3c(-c4ccccc4)c(C)nn3c2C)cc1`, for which the survival was inactive: 130%. The same measure for `O=c1ccc2cc(S(=O)(=O)Nc3ccc(OC(F)(F)F)cc3)ccc2[nH]1`: inactive: 88%; for `Cc1ccc(CNC(=O)CSC2=Nc3ccccc3N=C(c3ccc(F)cc3)C2)cc1`: inactive: 69%; for `COC(=O)c1ccc(Cn2c(SCc3ccc(F)cc3)nc3ccncc32)cc1`: inactive: 66%. With `CC(C)CCn1c(=O)c2cccnc2n(CC(=O)Nc2ccccc2F)c1=O`, the survival was inactive: 93%. With `Cn1c2ccccc2c2cnn(CC(=O)Nc3ccccc3F)c(=O)c21`, the survival was inactive: 135%. With `Cc1cc(C)cc(NC(=O)c2c(C)oc3nc(C)nc(N4CCCC4)c23)c1`, the survival is inactive: 47%. With `COc1cccc(-c2noc(-c3cc(C(C)C)[nH]n3)n2)c1OC`, the survival was inactive: 69%. The figure for `COc1cccc(Cn2c(-c3nonc3NC(C)=O)nc3ccccc32)c1` is inactive: 82%. Turning to `CCc1ccc(OCC(=O)Nc2ncn[nH]2)c(Br)c1`, the survival was inactive: 74%.

Consider `CCOc1ccc(Nc2nn(-c3ccc(OC(F)(F)F)cc3)nc2C(C)=O)cc1`, for which the survival was inactive: 123%. The figure for `COc1ccccc1CNC(=O)CCNS(=O)(=O)c1ccc2c(c1)oc(=O)n2C` is inactive: 83%. As for `Cc1cccc(NC(=O)c2sc3nc(-c4cc5ccc(O)cc5oc4=O)[nH]c(=O)c3c2C)c1`, the survival is inactive: 82%.

Regarding `O=C(Cn1c(=O)nc(-c2ccccc2F)c2cc(Cl)ccc21)NCCCc1ccccc1`, the survival is inactive: 78%.

`O=C(COc1ccc(F)cc1)NCc1ccc2c(c1)CCN2C(=O)c1ccccc1`: the survival was inactive: 55%. The figure for `CNC(=O)c1ccc2c(c1)N(Cc1ccccc1Cl)C(=O)c1ccccc1S2` is inactive: 70%; for `O=C(CN(C1CCCCC1)S(=O)(=O)c1ccccc1)N1CCCCC1` it is inactive: 101%; for `Clc1ccc(-c2noc(-c3cccnc3NCc3ccco3)n2)cc1` it is inactive: 83%. On to `Cc1ccc(-n2nc(C)c3nc(CCC(=O)Nc4cccc(F)c4)c(=O)n(C)c32)cc1`, for which the survival was active: -6%. For `Cc1cccc(CNC(=O)CCCN2C(=O)CCn3nc(-c4cccn4C)cc32)c1`, the survival is inactive: 69%.

In the case of `CCc1cccc(C)c1Nc1c(-c2ccsc2)nc2ncccn12`, the survival was inactive: 66%. As for `Cc1ccc2c(c1)c1c3n2CCN(C(=O)c2cccc(C(F)(F)F)c2)C3CCC1` (stereo not drawn), the survival was active: 5%. The figure for `Cc1ccc(C)c(Cn2c3ccccc3c3cnn(CC(=O)NCCc4ccccc4)c(=O)c32)c1` is inactive: 83%; for `COC(=O)CCC1(C(=O)O)CCOC(C)(C)C1` (stereo not drawn) it is inactive: 112%; for `COc1ccc(N2CCN(Cc3nnc(-c4ccc5c(c4)OCO5)o3)CC2)cc1` it is inactive: 81%. The same measure for `CCOc1c(Cl)cc(C(=O)N(Cc2ccc(N(C)C)cc2)Cc2ccco2)cc1Cl`: inactive: 87%; for `COc1ccc(CNC(=O)C2CCCN(c3nnc(C)c4c(C)n(-c5ccc(C)cc5)nc34)C2)cc1` (stereo not drawn): inactive: 70%. The same measure for `CCC(Sc1nc2ncccc2o1)C(=O)Nc1ccc(OC)c(OC)c1` (stereo not drawn): inactive: 55%. For `CCC1CN(C(=O)N2CCC(C(=O)N3CCN(c4ccccc4F)CC3)CC2)c2ccccc2O1` (stereo not drawn), the survival is inactive: 110%. In the case of `O=S(=O)(c1ccc(Cl)cc1Cl)n1ccnc1`, the survival is inactive: 71%. Consider `CSc1oc(-c2cccs2)nc1S(=O)(=O)c1ccc(Br)cc1`, for which the survival is inactive: 55%. Regarding `CCOc1ccccc1N(C)C(=O)c1c2c(nc3ccccc13)C(=O)N(C1CCCCC1)C2`, the survival was inactive: 90%. The same measure for `Cc1oc2c(c1C(=O)NCCO)CCCC2`: inactive: 109%; for `CC(C)C(=O)Nc1sc2c(c1C(N)=O)CCCC2`: inactive: 114%. Regarding `Cc1ccc2c(=O)cc(C(=O)Nc3sc4c(c3C(=O)NCC3CCCO3)CCCC4)oc2c1` (stereo not drawn), the survival is inactive: 86%. For `COc1ccc(C2CC(=O)c3cc(-c4nc(-c5cccc(Cl)c5)cs4)c(=O)[nH]c3C2)cc1` (stereo not drawn), the survival is inactive: 67%. Regarding `O=C(COc1cc2oc(=O)c3c(c2cc1Cl)CCC3)N1CCCC1`, the survival was inactive: 102%.

For `Cc1ccc2oc(=O)n(Cc3ccccc3Cl)c2c1`, the survival was active: -2%. As to `Cc1ccc2oc(-c3cc(NC(=O)c4oc5ccccc5c4C)ccc3Cl)nc2c1`, the survival is inactive: 81%. The figure for `CCCNC(=O)C1CCC(CNS(=O)(=O)c2ccc3c(c2)CC(C)N3C(C)=O)CC1` (stereo not drawn) is inactive: 105%; for `CN(Cc1ccc(F)cc1)S(=O)(=O)c1nnc(NC(=O)c2ccccc2)s1` it is inactive: 66%. The same measure for `CCc1ccc(OCC(=O)Nc2cc(-c3nc4cc(C)ccc4o3)ccc2C)cc1`: inactive: 81%; for `CC(=O)Nc1ccc(N2C(=O)CC(N3CCCCC3C)C2=O)cc1` (stereo not drawn): inactive: 105%.

`CC(C)N(C(=O)CSc1nnc(-c2ccc3c(c2)OCO3)n1C)C(C)C`: the survival is inactive: 107%.

Source of the values: PubChem BioAssay AID463173 (ICCB-Longwood Screening Facility, Harvard Medical School, 2010).
